# The list shows a part of the results.
# B1: PX15618A-bth-503-24-503 (Bacteroides thetaiotaomicron) (protein)
# chain: NKSEDKLSGDDFWAQGNETNAEAFLLSIYNSFRNATMSQRPFLTYSGDMRCAPITAYSTGDKYVAYLANNDMGELRNTYPDDARGGLIMQWDVFYTAIQDANILLAEIDKVPGMDELKRSRFKAEAIFMRSLSYFFIVRAFGDVPYYTNAYNEAPLPRTNMVIVLQNCLADLQPLLDDDPGAEVLPWSYSSYSSKGIRASRGSVIALMMHINLWLVQFDAQNKEQYYRNVVSLGEELERNNGAYSLLDINRSSVIFAGGSDEGLFEIAQNINFNEIFMMNAKFSDNVSYSCLNKSMPLFCYSGDYLMTLFPMYEDDARKELWFDEKIYSTSVSSSAPKEIKKFWNIDTYGNGTITSNSGNQIVFRYAGALLLYAEALAALGTNDTKACELLNRVRNRAHASEINTSGSELMDAIFWERCRELIGEGHYYYDLVRTGKVYNRNYCMNPMTRTNFNVGAWTWPIHRNALKNNTQIGLNLFWE
# Experiments:
# Assay in all cases: glycan array binding signal (z-score within array); higher = stronger binding
# Details in all cases: glycan notation: IUPAC condensed, linker removed
# [1] = target: Neu5Ac(a2-3)Gal(b1-3)GlcNAc(b1-2)Man(a1-3)[GlcNAc(b1-4)][Neu5Ac(a2-3)Gal(b1-3)GlcNAc(b1-2)Man(a1-6)]Man(b1-4)GlcNAc(b1-4)GlcNAc
# In short: (§1)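 Columns mapping to the same glycan were averaged after glycan names were converted to IUPAC-condensed notation. The data come from 3228 arrays in the Consortium for Functional Glycomics database, limited to those with an available protein sequence. Binding is reported as a within-array Z-score averaged across arrays of one protein sequence and across linkers.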
# [2] = target: Neu5Ac(a2-3)Gal(b1-3)GlcNAc(b1-2)Man(a1-3)[Neu5Ac(a2-3)Gal(b1-3)GlcNAc(b1-2)Man(a1-6)]Man(b1-4)GlcNAc(b1-4)GlcNAc
# In short: as §1
# [3] = target: Neu5Ac(a2-3)Gal(b1-3)GlcNAc(b1-3)Gal(b1-3)GlcNAc
# In short: as §1
# [4] = target: Neu5Ac(a2-3)Gal(b1-3)GlcNAc(b1-3)Gal(b1-4)GlcNAc
# In short: as §1
# [5] = target: Neu5Ac(a2-3)Gal(b1-3)GlcNAc(b1-3)GalNAc
# In short: as §1
# [6] = target: Neu5Ac(a2-3)Gal(b1-3)GlcNAc(b1-4)Gal(b1-4)Glc
# In short: as §1
# [7] = target: Neu5Ac(a2-3)Gal(b1-3)GlcNAc(b1-6)GalNAc
# In short: as §1
# [8] = target: Neu5Ac(a2-3)Gal(b1-3)GlcNAc6S
# In short: as §1
# [9] = target: Neu5Ac(a2-3)Gal(b1-3)[Fuc(a1-4)]GlcNAc
# In short: as §1
# [10] = target: Neu5Ac(a2-3)Gal(b1-3)[Fuc(a1-4)]GlcNAc(b1-3)Gal(b1-3)[Fuc(a1-4)]GlcNAc
# In short: as §1
# [11] = target: Neu5Ac(a2-3)Gal(b1-3)[Fuc(a1-4)]GlcNAc(b1-3)Gal(b1-4)[Fuc(a1-3)]GlcNAc
# In short: as §1
# [12] = target: Neu5Ac(a2-3)Gal(b1-3)[GlcNAc(b1-6)]GalNAc
# In short: as §1
# [13] = target: Neu5Ac(a2-3)Gal(b1-3)[Neu5Ac(a2-6)]GalNAc
# In short: as §1
# [14] = target: Neu5Ac(a2-3)Gal(b1-3)[Neu5Ac(a2-6)]GlcNAc(b1-3)[Fuc(a1-3)[Gal(b1-4)]GlcNAc(b1-6)]Gal(b1-4)Glc
# In short: as §1
# [15] = target: Neu5Ac(a2-3)Gal(b1-3)]Neu5Ac(a2-3)Gal(b1-4)]GlcNAc
# In short: as §1
# [16] = target: Neu5Ac(a2-3)Gal(b1-4)Glc
# In short: as §1
# [17] = target: Neu5Ac(a2-3)Gal(b1-4)GlcNAc
# In short: as §1
# [18] = target: Neu5Ac(a2-3)Gal(b1-4)GlcNAc(b1-2)Man
# In short: as §1
# [19] = target: Neu5Ac(a2-3)Gal(b1-4)GlcNAc(b1-2)Man(a1-3)[GlcNAc(b1-4)][Neu5Ac(a2-3)Gal(b1-4)GlcNAc(b1-2)Man(a1-6)]Man(b1-4)GlcNAc(b1-4)GlcNAc
# In short: as §1
# [20] = target: Neu5Ac(a2-3)Gal(b1-4)GlcNAc(b1-2)Man(a1-3)[Neu5Ac(a2-3)Gal(b1-4)GlcNAc(b1-2)Man(a1-6)]Man(b1-4)GlcNAc(b1-4)GlcNAc
# In short: as §1
# [21] = target: Neu5Ac(a2-3)Gal(b1-4)GlcNAc(b1-2)Man(a1-3)[Neu5Ac(a2-3)Gal(b1-4)GlcNAc(b1-2)Man(a1-6)]Man(b1-4)GlcNAc(b1-4)[Fuc(a1-6)]GlcNAc
# In short: as §1
# [22] = target: Neu5Ac(a2-3)Gal(b1-4)GlcNAc(b1-2)Man(a1-3)[Neu5Ac(a2-6)Gal(b1-4)GlcNAc(b1-2)Man(a1-6)]Man(b1-4)GlcNAc(b1-4)GlcNAc
# In short: as §1
# [23] = target: Neu5Ac(a2-3)Gal(b1-4)GlcNAc(b1-2)[Neu5Ac(a2-3)Gal(b1-4)GlcNAc(b1-4)]Man(a1-3)[GlcNAc(b1-4)][Neu5Ac(a2-3)Gal(b1-4)GlcNAc(b1-2)[Neu5Ac(a2-3)Gal(b1-4)GlcNAc(b1-6)]Man(a1-6)]Man(b1-4)GlcNAc(b1-4)GlcNAc
# In short: as §1
# [24] = target: Neu5Ac(a2-3)Gal(b1-4)GlcNAc(b1-2)[Neu5Ac(a2-3)Gal(b1-4)GlcNAc(b1-4)]Man(a1-3)[GlcNAc(b1-4)][Neu5Ac(a2-3)Gal(b1-4)GlcNAc(b1-4)Man(a1-6)]Man(b1-4)GlcNAc(b1-4)GlcNAc
# In short: as §1
# [25] = target: Neu5Ac(a2-3)Gal(b1-4)GlcNAc(b1-2)[Neu5Ac(a2-3)Gal(b1-4)GlcNAc(b1-6)]Man(a1-6)[Neu5Ac(a2-3)Gal(b1-4)GlcNAc(b1-2)Man(a1-3)]Man(b1-4)GlcNAc(b1-4)GlcNAc
# In short: as §1
# [26] = target: Neu5Ac(a2-3)Gal(b1-4)GlcNAc(b1-2)[Neu5Ac(a2-3)Gal(b1-4)GlcNAc(b1-6)]Man(a1-6)[Neu5Ac(a2-3)Gal(b1-4)GlcNAc(b1-2)Man(a1-3)][GlcNAc(b1-4)]Man(b1-4)GlcNAc(b1-4)GlcNAc
# In short: as §1
# [27] = target: Neu5Ac(a2-3)Gal(b1-4)GlcNAc(b1-3)Gal
# In short: as §1
# [28] = target: Neu5Ac(a2-3)Gal(b1-4)GlcNAc(b1-3)Gal(b1-3)GlcNAc
# In short: as §1
# [29] = target: Neu5Ac(a2-3)Gal(b1-4)GlcNAc(b1-3)Gal(b1-4)GlcNAc
# In short: as §1
# [30] = target: Neu5Ac(a2-3)Gal(b1-4)GlcNAc(b1-3)Gal(b1-4)GlcNAc(b1-2)Man(a1-3)[Neu5Ac(a2-3)Gal(b1-4)GlcNAc(b1-3)Gal(b1-4)GlcNAc(b1-2)Man(a1-6)]Man(b1-4)GlcNAc(b1-4)GlcNAc
# In short: as §1
# [31] = target: Neu5Ac(a2-3)Gal(b1-4)GlcNAc(b1-3)Gal(b1-4)GlcNAc(b1-3)Gal(b1-4)GlcNAc
# In short: as §1
# [32] = target: Neu5Ac(a2-3)Gal(b1-4)GlcNAc(b1-3)Gal(b1-4)GlcNAc(b1-3)Gal(b1-4)GlcNAc(b1-2)Man(a1-3)[Neu5Ac(a2-3)Gal(b1-4)GlcNAc(b1-3)Gal(b1-4)GlcNAc(b1-3)Gal(b1-4)GlcNAc(b1-2)Man(a1-6)]GalNAc
# In short: as §1
# [33] = target: Neu5Ac(a2-3)Gal(b1-4)GlcNAc(b1-3)Gal(b1-4)GlcNAc(b1-3)GalNAc
# In short: as §1
# [34] = target: Neu5Ac(a2-3)Gal(b1-4)GlcNAc(b1-3)Gal(b1-4)GlcNAc(b1-3)[Neu5Ac(a2-3)Gal(b1-4)GlcNAc(b1-3)Gal(b1-4)GlcNAc(b1-6)]GalNAc
# In short: as §1
# [35] = target: Neu5Ac(a2-3)Gal(b1-4)GlcNAc(b1-3)Gal(b1-4)GlcNAc(b1-6)[Gal(b1-3)]GalNAc
# In short: as §1
# [36] = target: Neu5Ac(a2-3)Gal(b1-4)GlcNAc(b1-3)Gal(b1-4)[Fuc(a1-3)]GlcNAc
# In short: as §1
# [37] = target: Neu5Ac(a2-3)Gal(b1-4)GlcNAc(b1-3)GalNAc
# In short: as §1
# [38] = target: Neu5Ac(a2-3)Gal(b1-4)GlcNAc(b1-3)[Neu5Ac(a2-3)Gal(b1-4)GlcNAc(b1-6)]GalNAc
# In short: as §1
binder,measurement,setting,value
B1,glycan array binding signal (z-score),[1],-0.463
same,glycan array binding signal (z-score),[2],-0.258
same,glycan array binding signal (z-score),[3],-0.591
same,glycan array binding signal (z-score),[4],-0.339
same,glycan array binding signal (z-score),[5],-0.726
same,glycan array binding signal (z-score),[6],-0.638
same,glycan array binding signal (z-score),[7],-0.329
same,glycan array binding signal (z-score),[8],0.052
same,glycan array binding signal (z-score),[9],-0.029
same,glycan array binding signal (z-score),[10],-0.39
same,glycan array binding signal (z-score),[11],0.158
same,glycan array binding signal (z-score),[12],-0.154
same,glycan array binding signal (z-score),[13],-0.238
same,glycan array binding signal (z-score),[14],0.335
same,glycan array binding signal (z-score),[15],0.09
same,glycan array binding signal (z-score),[16],0.574
same,glycan array binding signal (z-score),[17],-0.425
same,glycan array binding signal (z-score),[18],0.676
same,glycan array binding signal (z-score),[19],-0.784
same,glycan array binding signal (z-score),[20],-0.078
same,glycan array binding signal (z-score),[21],-0.332
same,glycan array binding signal (z-score),[22],-0.098
same,glycan array binding signal (z-score),[23],-0.519
same,glycan array binding signal (z-score),[24],-0.189
same,glycan array binding signal (z-score),[25],-0.331
same,glycan array binding signal (z-score),[26],0.439
same,glycan array binding signal (z-score),[27],-0.371
same,glycan array binding signal (z-score),[28],-0.372
same,glycan array binding signal (z-score),[29],0.461
same,glycan array binding signal (z-score),[30],-0.217
same,glycan array binding signal (z-score),[31],-0.448
same,glycan array binding signal (z-score),[32],1.28
same,glycan array binding signal (z-score),[33],-0.707
same,glycan array binding signal (z-score),[34],0.194
same,glycan array binding signal (z-score),[35],0.584
same,glycan array binding signal (z-score),[36],-0.212
same,glycan array binding signal (z-score),[37],-0.683
same,glycan array binding signal (z-score),[38],0.114

# — the supplement of paper PMC8728848
